# Assay results reported in PubChem BioAssay AID1345082 (National Center for Advancing Translational Sciences (NCATS), 2018).
# About 4,000 (4.3%) of roughly 94,000 compounds were called active. This list was built around the results that the source calls inconclusive (neither active nor inactive); the mix of calls is not that of the screen. The call rests on the fitted dose curve; in most records, active means well fitted inhibition curve with a large enough effect; inconclusive means small, poorly fitted or top-dose-only effect; inactive means no such curve, though single readings can be large or run the other way. Where the call is inconclusive, the potency comes from a doubtful curve fit.
# Test: Cytotoxic Profiling in NIH 3T3 Cell Line of Diverse Libraries Using Quantitative High-Throughput Screening; further: nearly all actives have a fitted effect of over 55% in size
# Conditions: NIH 3T3 viability, CellTiter-Glo ATP luminescence, 48-72 h; activity change, negative = cytotoxicity: at 96.7 µM (top of the series); series mostly up to 96.7 µM
# Outline: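 Luminescent ATP readout (CellTiter-Glo, 10 min RT) after 48 or 72 hr compound exposure of NIH 3T3 cells seeded at 400 cells/well in 1536-well format; quantitative HTS.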
# On the % scale 0 is the no-effect control and ±100 the full control effect; potency means the concentration at half of the fitted maximal effect; tags describe the fitted curve by direction and shape.
Structure (SMILES),Potency,"activity change, negative = cytotoxicity"
O=C1NC2(CCN(C(=O)Cc3ccccc3)C2)Oc2ccccc21 (stereo unspecified),"inconclusive: 89.1 µM [inhibitor, partial curve, poor fit]",–
COc1ccc2[nH]c(C[C@@H]3C[C@@H](C(C)C)[C@H](CNC(=O)c4cccnc4)C=C3C)nc2n1,"inconclusive: 63.1 µM [inhibitor, full curve, poor fit]",–
O=C(COc1ccccc1)Nc1ccc([C@@H](O)[C@H]2COCC(=O)N2Cc2ccc(F)cc2)cc1,–,inactive: -18.4%
C#CCNC(=O)[C@@H]1Cc2cn(Cc3cccnc3)c3cccc(c23)[C@H](CC(C)C)N1,active: 79.4 µM,–
COc1cccc([S+](=O)([O-])N2CCC3(CC2)CC(=O)c2ccc(Cl)cc2O3)c1,"inconclusive: 44.7 µM [inhibitor, partial curve]",–
O=c1n(-c2cccc(Cl)c2)nc2n1CCN([S+](=O)([O-])c1ccccc1)C2,–,inactive: -12.8%
CC(=O)N1CCC2(CC1)CC(N(Cc1ccc(F)cc1)C1CC1)CCO2 (stereo unspecified),–,inactive: 4.45%
Cc1ccc(NC(=O)Cn2ccn3nc4c(c3c2=O)CCCCC4)cc1C,–,inactive: -24.6%
O=C(N[C@H]1CO[C@H]2[C@@H]1OC[C@@H]2Nc1nccc(-c2cccc(F)c2)n1)C1CC1,–,inactive: -33.4% [at 174 µM]
Cc1ccc(CN2C[C@H]3CN(Cc4cccc(OC(F)(F)F)c4)CCN3C2=O)cc1,active: 44.7 µM,–
Cc1nc(CN2CCOc3cc([S+](=O)([O-])Nc4ccccc4)ccc3C2)cs1,"inconclusive: 56.2 µM [inhibitor, partial curve, poor fit]",–
N#CC1CCN(C(=O)c2nc(-c3ccccc3)c3ccccn23)CC1,"inconclusive: 100 µM [inhibitor, partial curve, poor fit]",–
O=C(NCC1Cn2cccc2CN1Cc1ccccc1)c1ccsc1 (stereo unspecified),–,inactive: -5.26%
O=C(NC[C@H]1Cn2c(-c3ccc4c(c3)OCCO4)cnc2CO1)Nc1ccccc1,active: 89.1 µM,–
Cc1cnc(C(=O)N2CC(Cn3c(C)cnc3-c3ccncc3)C2)cn1,–,inactive: -0.578%
CCCCNC(=O)c1cccc2c1CCN2S(=O)(=O)c1ccccc1,"inconclusive: 50.1 µM [inhibitor, partial curve, poor fit]",–
COc1ncccc1-c1cc2c(ccn2C(C)C)c(C(=O)NCc2c(C)cc(C)[nH]c2=O)n1,"inconclusive: 50.1 µM [inhibitor, partial curve, poor fit]",–
CN1C[C@@H]2C[C@H]1C(=O)N(Cc1ccccc1)c1ccccc1O2,"inconclusive: 89.1 µM [inhibitor, partial curve]",–
O=C(NCc1ccccc1)C1COC2(CCN(C(=O)c3cccs3)CC2)N1C(=O)c1ccccc1 (stereo unspecified),–,inactive: -13.4%
N#Cc1cccc(C(=O)Nc2ccc([C@@H](O)[C@H]3COCC(=O)N3Cc3ccc(F)cc3)cc2)c1,"inconclusive: 8.91 µM [inhibitor, partial curve, poor fit]",–
CC(=O)NCCC(=O)N1Cc2ccccc2CC2(CCCN2CC2CCCCC2)C1 (stereo unspecified),–,inactive: -8.15%

Structure (SMILES),Potency,"activity change, negative = cytotoxicity"
Cc1oc2ccn(Cc3cccc(F)c3)c(=O)c2c1C(=O)NCc1ccccc1,"inconclusive: 50.1 µM [inhibitor, partial curve, poor fit]",–
O=C1NCN(Cc2ccc(Cl)cc2)C12CCN([S+](=O)([O-])c1cccc(C(F)(F)F)c1)CC2,"inconclusive: 25.1 µM [inhibitor, partial curve]",–
Cc1cccc2c1nc1n2[C@@H](CNS(=O)(=O)Cc2ccccc2)COC1,"inconclusive: 50.1 µM [inhibitor, partial curve, poor fit]",–
O=C(Cc1cccs1)N1CCCN(c2cc(-c3ccc(Br)cc3)[nH]n2)CC1,active: 35.5 µM,–
CC1=NS(=O)(=O)N(C)C=C1C(=O)OCc1noc(-c2cccs2)n1,"inconclusive: 25.1 µM [inhibitor, partial curve, poor fit]",–
CCn1cc(CN(C)Cc2ccccc2)ccc1=O,"inconclusive: 31.6 µM [inhibitor, partial curve, poor fit]",–
O=C1OCC2(CCN(Cc3ccccc3O)C2)N1Cc1ccccc1 (stereo unspecified),"inconclusive: 89.1 µM [inhibitor, single point]",–
Cc1cnc(C(=O)N[C@@H]2CCC[C@@H]2C(=O)NCCc2cccs2)cn1,–,inactive: -1.93%
COc1ccc(CNC(=O)C2CCCCN2Cc2ccc(-c3cc(F)ccc3OC)cc2)cc1 (stereo unspecified),"inconclusive: 12.6 µM [inhibitor, full curve]",–
O=C(c1ccccc1)N1CCC2(CC1)CC(N(Cc1ccc(F)cc1)C1CC1)CCO2 (stereo unspecified),"inconclusive: 44.7 µM [inhibitor, partial curve, poor fit]",–
O=C(Cc1cccnc1)N1CCC2(CC1)CC(CCOc1ccc(F)cc1)CCO2 (stereo unspecified),"inconclusive: 25.1 µM [inhibitor, partial curve, poor fit]",–
CN(C)c1ncc2c(n1)C(C)(C(=O)Nc1ccccc1F)CCC2 (stereo unspecified),"inconclusive: 56.2 µM [inhibitor, partial curve, poor fit]",–
C=CCN(Cc1ccccc1OC)C(=O)c1cnn(CCC)c1C,"inconclusive: 79.4 µM [inhibitor, partial curve, poor fit]",–
CC(=O)N1Cc2ccccc2CC2(CCN(CC3CCCCC3)CC2)C1,–,inactive: 4.87%
O=C(NC1CCN(c2cc(-c3cccs3)[nH]n2)CC1)c1cccc(Cl)c1,"inconclusive: 11.2 µM [inhibitor, full curve, poor fit]",–
O=C(c1ccccc1)N1CCc2nc(C3CC3)nc(-c3ccc(O)cc3)c2CC1,"inconclusive: 79.4 µM [inhibitor, partial curve, poor fit]",–
CCn1cc(-c2ccncc2)cc1C(=O)NCc1ccc(Cl)cc1,"inconclusive: 70.8 µM [inhibitor, single point]",–
OCCNc1ncnc2ccc(-c3cccc(O)c3)cc12,"inconclusive: 79.4 µM [inhibitor, partial curve]",–
COCC1CN(Cc2cc(F)cc(Br)c2)CC12CCNCC2 (stereo unspecified),"inconclusive: 44.7 µM [inhibitor, partial curve, poor fit]",–
O=C(c1cccc(-n2cnnc2)c1)N(Cc1ccc2[nH]ccc2c1)C1CC1,–,inactive: -18%
C#CCNC(=O)c1cc(-c2cccc(C(F)(F)F)c2)c2nncn2n1,"inconclusive: 35.5 µM [inhibitor, partial curve]",–

Structure (SMILES),Potency,"activity change, negative = cytotoxicity"
Cn1ccnc1CN1CCOC[C@H]1c1ncc(-c2cccc(Cl)c2)[nH]1,"inconclusive: 100 µM [inhibitor, partial curve, poor fit]",–
COc1ccccc1CNC(=O)CC1CCCN(c2cnn(CC3CC3)c(=O)c2)C1 (stereo unspecified),"inconclusive: 50.1 µM [inhibitor, partial curve, poor fit]",–
Cc1cc(C)c2[nH]c(C(=O)N3CCCC3c3nc4ccccc4[nH]3)c(C)c2c1 (stereo unspecified),"inconclusive: 50.1 µM [inhibitor, partial curve, poor fit]",–
O=C1CCN(Cc2cccc(F)c2)CCCC(c2nc(-c3cccnc3)no2)CCN1 (stereo unspecified),"inconclusive: 44.7 µM [inhibitor, partial curve]",–
O=C(NCc1ccc(Cl)cc1)c1ccc(N2CC3CC(C2)[C@H]2CCCC(=O)N2C3)nc1 (stereo partly specified),"inconclusive: 15.8 µM [inhibitor, full curve, poor fit]",–
COCCOC1CN(C2CCN(CC3CCCCC3)CC2)C12CCCCC2 (stereo unspecified),"inconclusive: 44.7 µM [inhibitor, partial curve, poor fit]",–
CN(CC(=O)N1CCC(CCOc2ccccc2F)C1)S(=O)(=O)c1ccc2c(c1)oc(=O)n2C (stereo unspecified),"inconclusive: 28.2 µM [inhibitor, partial curve]",–
Cc1ccccc1Nc1cnc2ccc(-c3cccc(CO)c3)nn12,"inconclusive: 44.7 µM [inhibitor, partial curve, poor fit]",–
COc1cccc(CCC(=O)N2CCCN(c3cc(-c4ccccc4)[nH]n3)CC2)c1,"inconclusive: 44.7 µM [inhibitor, partial curve, poor fit]",–
COc1ccc(-c2cn3cc(C(=O)N4CCCCC4)nc3c(=O)n2CC2CC2)cc1,"inconclusive: 70.8 µM [inhibitor, partial curve, poor fit]",–
COc1cccc(C(=O)N2CC(=O)N(Cc3c(OC)cccc3OC)CC(O)C2)c1 (stereo unspecified),"inconclusive: 44.7 µM [inhibitor, partial curve, poor fit]",–
COc1ccccc1Nc1ccnc(N2CCC(C(=O)N3CCN(Cc4ccccc4)CC3)CC2)n1,"inconclusive: 50.1 µM [inhibitor, partial curve, poor fit]",–
COC(=O)c1cccc2nc([C@H]3CCN(Cc4ccccc4C)C3)oc12,"inconclusive: 79.4 µM [inhibitor, partial curve, poor fit]",–
O=C(N1CCCC(c2nnnn2-c2ccccc2)C1)C1(c2ccccc2)CC1 (stereo unspecified),"inconclusive: 44.7 µM [inhibitor, partial curve, poor fit]",–
CC1(C)[C@H](Cc2cc(COc3ccccc3)on2)C[C@@H]1NC(=O)Cc1ccccc1,active: 56.2 µM,–
O=C(Nc1ccc([C@@H](O)[C@H]2COCC(=O)N2Cc2ccccc2F)cc1)C1CCCCC1,"inconclusive: 39.8 µM [inhibitor, partial curve]",–
O=C(C1CCN(c2ccnc3ccnn23)CC1)N1CCCCC1,"inconclusive: 79.4 µM [inhibitor, partial curve, poor fit]",–
Cc1ccc(C(CC(=O)N2CCCCC2)c2cn(C)c3ccccc23)cc1 (stereo unspecified),"inconclusive: 44.7 µM [inhibitor, partial curve, poor fit]",–
O=C(Nc1cccc(F)c1)N1CC(Oc2ccc(-c3nc(-c4ccccc4)no3)cc2)C1,"inconclusive: 11.2 µM [inhibitor, full curve, poor fit]",–
